From the supplement of paper PMC3334620
Whole data set: some 33,000 sequences, median “E-score (-0.5 to 0.5)” near -0.035, cut for the highest 2% near 0.34. The list shows a part of the results.

Target: T1, Mot3 (UniProt P54785)
T1 sequence: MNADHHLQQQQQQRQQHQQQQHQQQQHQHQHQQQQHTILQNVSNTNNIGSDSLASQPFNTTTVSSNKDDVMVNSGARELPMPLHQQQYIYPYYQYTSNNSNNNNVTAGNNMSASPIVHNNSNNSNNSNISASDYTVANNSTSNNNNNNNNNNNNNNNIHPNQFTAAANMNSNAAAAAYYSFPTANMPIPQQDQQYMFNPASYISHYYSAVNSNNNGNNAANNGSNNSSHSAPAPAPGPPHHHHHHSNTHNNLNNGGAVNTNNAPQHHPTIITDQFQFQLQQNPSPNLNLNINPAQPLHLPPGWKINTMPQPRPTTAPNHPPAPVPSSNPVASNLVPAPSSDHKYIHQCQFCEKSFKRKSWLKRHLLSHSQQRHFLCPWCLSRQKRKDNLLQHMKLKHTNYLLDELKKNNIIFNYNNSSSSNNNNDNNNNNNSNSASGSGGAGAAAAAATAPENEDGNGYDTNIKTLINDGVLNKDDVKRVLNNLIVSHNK
Test: PBM E-score (8-mer binding enrichment) (E-score (-0.5 to 0.5)); higher = stronger / more preferred TF binding; most listed sequences are background and not binding sites
Conditions: protein concentration: 200 nM; construct: GST-full length
Outline: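 Universal all-10-mer Agilent arrays, double-stranded by primer extension on fresh or once-stripped slides, were probed with about 100-200 nM GST-tagged yeast transcription factors made by PURExpress. Fluorescent anti-GST detected bound protein, and masliner normalised the scans. E-scores from the Universal PBM Analysis Suite were given to each ungapped eight-base word pooled with its reverse complement.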

| Sequence | PBM E-score |
| --- | --- |
| TACAGAGA | -0.0215 |
| CGTTCCAG | -0.227 |
| ACGAGTCA | -0.0846 |
| AAATGTAC | 0.227 |
| CATAATTC | 0.0789 |
| CGTCTTCA | -0.167 |
| ACGGGTGA | -0.137 |
| GCCCACGC | -0.263 |
| CGAAGAAA | -0.0351 |
| TAAACTAA | 0.149 |
| AGTGATCC | -0.0682 |
| GCTGTTTA | -0.0345 |
| TGCCGGAA | 0.0304 |
| AAATTCCG | -0.0878 |
| GATCCACA | -0.0333 |
| AGCCGGTC | -0.171 |
| CAGAATGC | -0.195 |
| CCTCTCCA | -0.126 |
| TCACACCA | -0.0793 |
| GACGACTA | 0.112 |
| ACACTATC | -0.121 |
| CGTAGTGC | -0.09 |
| CCGAGCAA | -0.194 |
| CAGATAGA | -0.27 |
| GGAAGCCA | -0.322 |

| Sequence | PBM E-score |
| --- | --- |
| CCGTGGTC | -0.151 |
| CCGCACCA | -0.255 |
| GATATGCC | -0.169 |
| CGAGAACA | -0.0594 |
| CAATTTAC | 0.216 |
| GTCTTAAC | 0.208 |
| CCCCAGTA | -0.171 |
| CCGGGAGA | -0.209 |
| CCAAGAGC | -0.316 |
| ATAGGCTC | 0.207 |
| CCGAAACG | -0.117 |
| CGGGACAA | -0.123 |
| AATTACAT | 0.419 |
| GGTCACTA | -0.14 |
| ATTTGAGG | -0.0694 |
| GTTGGTGA | 0.00088 |
| ACATGAAA | 0.265 |
| CATATGGC | -0.2 |
| CAGATGGC | -0.145 |
| GATGTAGA | 0.195 |
| ATTCGGAC | 0.0425 |
| GGCACCAA | 0.315 |
| AAAGCTCG | -0.117 |
| GTAAATGA | 0.247 |
| GGTCTACA | 0.248 |

| Sequence | PBM E-score |
| --- | --- |
| ATCGGTCG | -0.126 |
| AACGCAAC | 0.168 |
| ACTAATAT | 0.0372 |
| AATTAAGG | 0.149 |
| CATTCGAG | -0.0712 |
| TCTCGGAA | -0.188 |
| CGTGCAGA | -0.15 |
| CCGTGTGA | 0.277 |
| AGCCAAAG | -0.13 |
| AATACGCT | 0.188 |
| AATTCAGT | -0.0706 |
| AAGAACCA | -0.134 |
| CAGGGAAC | -0.0529 |
| GGCTCCGA | -0.172 |
| TGCGACCA | -0.168 |
| AAATGTGC | 0.203 |
| TAGGTGCA | 0.0207 |
| ACACAGCT | 0.287 |
| CCAACAAA | 0.219 |
| TCATCACA | 0.11 |
| AACGAATT | 0.0377 |
| GAAGATTA | 0.067 |
| GAAGAACA | 0.285 |
| ACAGGAAG | 0.0333 |
| AAACCTAA | 0.0894 |

| Sequence | PBM E-score |
| --- | --- |
| ATTCGGTA | 0.111 |
| ACGCACGG | 0.0438 |
| GACTCATC | -0.209 |
| CAGGTGCC | 0.314 |
| CAACTTGA | 0.206 |
| ATGGGGGA | -0.245 |
| ACTGAGCA | -0.0451 |
| AAAGAAGT | 0.0597 |
| AGATGGAC | -0.214 |
| GTCGATAA | 0.024 |
| AATGCGCT | -0.0472 |
| ACGAATGG | -0.0484 |
| CGCAACCA | -0.0278 |
| CAACGCTA | -0.0278 |
| CTTTGGGC | -0.14 |
| GTCAAGGA | 0.16 |
| ATAGCTAG | -0.0462 |
| CGAGAGGA | -0.104 |
| GCTAACCC | -0.148 |
| CCCAGCAA | -0.0854 |
| AGTTGACC | -0.143 |
| CCAGAGAC | -0.171 |
| GATTTCTA | -0.132 |
| CGACGGTA | -0.0139 |
| CATTGCAG | -0.105 |

| Sequence | PBM E-score |
| --- | --- |
| AGCTACCA | -0.133 |
| AAGTTCAA | 0.00807 |
| AATCTCCC | -0.34 |
| GAGCCAAA | -0.2 |
| TCAACTCA | -0.0911 |
| AATCAGGT | 0.153 |
| GATTTGCC | 0.203 |
| CTATAAAG | -0.124 |
| AAAGCAAA | 0.216 |
| CACCCATC | -0.143 |
| GACCGTGA | -0.0289 |
| AAACAGGT | 0.232 |
| CAATTAAG | 0.114 |
| CTGTGGCC | -0.0368 |
| AGCTGTTC | -0.0345 |
| GCCAGGAC | -0.233 |
| GGAAGAAA | -0.00437 |
| AAGAAGGG | -0.174 |
| TAGGGACA | -0.164 |
| AAACCTAG | 0.0425 |
| GCAGCCCA | -0.183 |
| ATATAACC | -0.0921 |
| GCCGCACA | -0.203 |
| CCCTTTGA | -0.0997 |
| ATGCAAGG | -0.116 |

| Sequence | PBM E-score |
| --- | --- |
| AGTTTGGA | 0.118 |
| AAAATATA | 0.0383 |
| ATTAGAAA | -0.0293 |
| CACCGGGA | -0.201 |
| AGTATACT | -0.0295 |
| CACATAAG | 0.0691 |
| GCAAAGGC | 0.184 |
| GGAAGACC | -0.207 |
| AACTGATT | -0.0887 |
| AGCCAACT | -0.0761 |
| GAGCGTAA | 0.197 |
| ACGCCGAT | 0.0442 |
| AGCGTGCG | -0.185 |
| CCATATAA | 0.0352 |
| CACAACCC | -0.196 |
| GAAGAGAC | -0.0842 |
| AACAGCTA | -0.052 |
| CCGCCCTA | -0.123 |
| AATACGAA | 0.0904 |
| GTAGAAGA | -0.00994 |
| CATTTAGC | 0.156 |
| CTCCGTCA | -0.13 |
| AGTGGGTC | -0.179 |
| AGCGCAAG | 0.0235 |
| ACGTAACG | 0.0865 |

| Sequence | PBM E-score |
| --- | --- |
| CTAAGTAA | 0.168 |
| CCTGGCCC | -0.253 |
| CTCAATCA | -0.0257 |
| AGGTTGCC | 0.303 |
| AATCTGCT | -0.188 |
| AGGCACCT | 0.491 |
| AAAGTTGG | 0.179 |
| GACGAGTC | -0.158 |
| CCGTTACG | -0.0265 |
| AGCGTAAC | 0.0483 |
| CGCTGCGA | -0.109 |
| CTTTCCCA | -0.0799 |
| ACGCTCTA | 0.0713 |
| AAAATGAT | 0.0691 |
| TAATGATA | 0.141 |
| GGTGCCAC | -0.168 |
| GCTAATAA | 0.0214 |
| GATGATAC | -0.062 |
| TACATACA | 0.355 |
| ATAAACGG | 0.0165 |
| AGAAAAGG | 0.0803 |
| AATCGTGA | -0.105 |
